pIC50: −log10 of the molar value. By IC50 is meant the dose at which the fit gives 50% viability; fits outside the tested doses are given as limits. AUC sums up the same curve from the lowest dose to the 256-fold higher top dose; it is 1 without any effect and falls as sensitivity rises. For some of these results: An inferred top dose is not printed in the source and was worked back from the curve model. For some of these results: An entry number marks a drug with two screens in the source, which often give different values.
Columns and labels:
Assay in all cases: Viability of human cancer cell lines after 72 h of drug (GDSC screen)
[1] = compound: CC1(C)CNc2cc(NC(=O)c3cccnc3NCc3ccncc3)ccc21 [AMG-706]; conditions: top dose 2 µM; top dose inferred
Experimental: (§1)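 Human cancer cell lines in 384-well plates, medium with 10% serum, drug for 72 h over a 256-fold dose range (nine 2-fold or five 4-fold steps up to the top dose). Adherent lines were fixed and stained with the nucleic acid dye Syto60, suspension lines read with resazurin; signal relative to control wells, capped at 0 and 100%. One two-parameter sigmoid per drug and line, fitted in a mixed model over all curves with the slope shared within a line.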

[2] = compound: CCOc1nc(NC(=O)Cc2cc(OC)ccc2OC)cc(N)c1C#N [JNK Inhibitor VIII]; conditions: top dose 10 µM; top dose inferred
Experimental: as §1

[3] = compound: COC(=O)[C@H](CCSC)NC(=O)c1ccc(NC[C@@H](N)CS)cc1-c1ccccc1 [FTI-277]; conditions: top dose 1.024 µM; top dose inferred
Experimental: as §1

[4] = compound: Cc1sc2c(c1C)C(c1ccc(Cl)cc1)=N[C@@H](CC(=O)OC(C)(C)C)c1nnc(C)n1-2 [JQ1]
Experimental: as §1

[5] = compound: c1ccc2c(CCNc3ccc(Nc4ccncc4)cc3)c[nH]c2c1 [JNJ-26854165]; conditions: top dose 10 µM
Experimental: as §1

[6] = compound: COCC[n+]1c2c(n(Cc3cnccn3)c1C)C(=O)c1ccccc1C2=O [YM155]; conditions: top dose 5.12 µM
Experimental: as §1

[7] = compound: CC1=C2C[C@H]3[C@@H](CC=C4C[C@@H](O)CC[C@@]43C)[C@@H]2CC[C@]12O[C@@H]1C[C@H](C)CN[C@H]1[C@H]2C [Cyclopamine]; conditions: top dose 16 µM; top dose inferred
Experimental: as §1

[8] = compound: O=C(/C=C/c1cccc(S(=O)(=O)Nc2ccccc2)c1)NO [Belinostat]; conditions: top dose 20 µM; top dose inferred
Experimental: as §1

[9] = compound: OCCCNc1cc(-c2ccnc(Nc3cccc(Cl)c3)n2)ccn1 [CGP-60474]; conditions: top dose 0.256 µM; top dose inferred
Experimental: as §1

[10] = compound: C[C@]1(O)C[C@@H](c2nc(-c3ccc4ccc(-c5ccccc5)nc4c3)c3c(N)nccn32)C1 [OSI-906]; conditions: top dose 2.56 µM; top dose inferred
Experimental: as §1

[11] = compound: CN1CCN(c2ccc([N+](=O)[O-])c3no[n+]([O-])c23)CC1 [NSC-207895]; conditions: top dose 20 µM; top dose inferred
Experimental: as §1

[12] = compound: CC(=O)O[C@@]12CO[C@@H]1C[C@H](O)[C@@]1(C)C(=O)[C@H](O)C3=C(C)[C@@H](OC(=O)[C@H](O)[C@@H](NC(=O)OC(C)(C)C)c4ccccc4)C[C@@](O)([C@@H](OC(=O)c4ccccc4)[C@H]21)C3(C)C [Docetaxel]; conditions: top dose 0.0125 µM
Experimental: as §1

[13] = compound: Cc1ccc(C(=O)N(CCCN)[C@@H](c2nc3cc(Cl)ccc3c(=O)n2Cc2ccccc2)C(C)C)cc1 [SB-715992]; conditions: top dose 0.128 µM; top dose inferred
Experimental: as §1

[14] = top dose 1 µM, screen: GDSC drug entry 1218, top dose inferred
[15] = top dose 2.56 µM, screen: GDSC drug entry 163

Row | Cell Line | AUC [1] | pIC50 [1] | AUC [2] | pIC50 [2] | AUC [3] | pIC50 [3] | AUC [4, 14] | pIC50 [4, 14] | AUC [4, 15] | pIC50 [4, 15] | AUC [5] | pIC50 [5] | AUC [6] | pIC50 [6] | AUC [7] | pIC50 [7] | AUC [8] | pIC50 [8] | AUC [9] | pIC50 [9] | AUC [10] | pIC50 [10] | AUC [11] | pIC50 [11] | AUC [12] | pIC50 [12] | AUC [13] | pIC50 [13]
1 | NCI-H720 (lung carcinoid, suspension) | 0.991 | < 5.70 | 0.984 | < 5.00 | 0.992 | < 5.99 | 0.987 | < 6.00 | 0.992 | < 5.59 | 0.992 | < 5.00 | 0.661 | 6.07 | 0.992 | < 4.80 | 0.942 | < 4.70 | 0.98 | < 6.59 | 0.992 | < 5.59 | 0.974 | < 4.70 | 0.875 | 7.98 | 0.961 | < 6.89
2 | NCI-H847 (small cell lung carcinoma, adherent) | 0.993 | < 5.70 | 0.993 | < 5.00 | 0.963 | < 5.99 | 0.977 | < 6.00 | 0.853 | 5.84 | 0.993 | < 5.00 | 0.015 | > 7.70 | 0.993 | < 4.80 | 0.111 | 6.99 | 0.727 | 7.22 | 0.855 | 5.84 | 0.681 | 5.45 | 0.966 | < 7.90 | 0.474 | 8.16
3 | NCI-H1092 (small cell lung carcinoma, suspension) | 0.99 | < 5.70 | 0.99 | < 5.00 | 0.985 | < 5.99 | 0.982 | < 6.00 | 0.953 | < 5.59 | 0.955 | < 5.00 | 0.373 | 6.84 | 0.99 | < 4.80 | 0.368 | 6.27 | 0.767 | 7.02 | 0.892 | < 5.59 | 0.858 | 4.78 | 0.986 | < 7.90 | 0.867 | 6.93
4 | NCI-H1155 (large cell lung carcinoma, suspension) | 0.987 | < 5.70 | 0.986 | < 5.00 | 0.993 | < 5.99 | 0.993 | < 6.00 | 0.928 | < 5.59 | 0.906 | 5.03 | 0.155 | 7.43 | 0.993 | < 4.80 | 0.373 | 6.22 | 0.904 | 6.63 | 0.993 | < 5.59 | 0.982 | < 4.70 | 0.955 | < 7.90 | 0.889 | 7.00

From the supplement of paper PMC4967469
